These results are taken from PubChem BioAssay AID1508623 (National Center for Advancing Translational Sciences (NCATS), 2021).

The campaign covered roughly 48,000 compounds. About 450 (0.94%) were called active. Roughly 19% stayed inconclusive and do not appear here. Calls follow the shape of the dose curve; as a rule, active = well fitted inhibition curve with a large enough effect; inconclusive = small, poorly fitted or top-dose-only effect; inactive = no such curve, though single readings can be large or run the other way. Some of the results follow.

This test in a line: Primary qHTS for Identification of Small Molecule Inhibitors of Huntingtin Promoter Activity. Also: nearly all actives have a fitted effect of over 50% in size. Conditions: HEK293 HTT promoter firefly luciferase reporter (activity 0% = vehicle and -100% = no light), 24 h; series mostly up to 57.5 µM; activity change, negative = inhibition: at the top concentration. In outline: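 Luminescence was read after Dual-Glo reagent and a 10 min room-temperature incubation. Values were normalized to vehicle (0% activity) and zero RLU (-100% activity). Reporter HEK293 cells had been exposed to compounds (up to 57.5 uM final) for 24 h.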
Consider `COc1cc(-c2cc(OC)c3c(C)oc(C)c3c(=O)c2)ccc1OC(=O)c1cccc(Cl)c1`, for which the “activity change, negative = inhibition” value is inactive: -7.99%.
For `COc1ccc(NC(=O)CCCN2C(=O)COc3ccc(C)cc32)cc1OC`, the “activity change, negative = inhibition” value is inactive: -29.9%.
`O=C(Cn1c(=O)n(-c2ccc(Cl)cc2)c(=O)c2c3c(sc21)CCC3)c1ccccc1`: the “activity change, negative = inhibition” value is inactive: -11.2%.
The figure for `CCCCN1CCCC[C@H]1C(=O)Nc1c(C)cccc1C` is inactive: -9.58%; for `CC(C)(C)OC(=O)N1CCC(c2c(C(=O)N3CCN(C(=O)c4ccco4)CC3)cnn2-c2ccccc2Cl)CC1` it is inactive: -15%; for `COCCCNC(=O)c1ccc2c(c1)NC(=O)C(C(C)C)N2` (centres undefined) it is inactive: -13.4%.
The value for `CCc1ccc(S(=O)(=O)c2nnn3c2nc(NCCNC(C)=O)c2cc(Cl)ccc23)cc1` was inactive: -13%; that for `CC(C)(C)NC(=O)c1oc2ccccc2c1NC(=O)c1ccc(F)cc1` was inactive: -17.9%; that for `COc1ccc(CCN2C(=O)CN(C3CCC(C)CC3)C(=O)C2c2ccc(OC(C)C)c(OC)c2)cc1OC` (centres undefined) was inactive: -29.1%.
The figure for `Cc1ccccc1C(=O)c1cccn1CC(=O)NCc1cccc(Cl)c1` is inactive: 26.4%.
As to `CCc1nn(CCCC(=O)NC(C)c2ccccc2)c(=O)c2cc3occc3n12` (centres undefined), the “activity change, negative = inhibition” value was inactive: -11%.
The value for `Cn1c(SCc2ccccc2F)nc2c([nH]c3ccccc32)c1=O` was inactive: 2.62%; that for `CCCCNC(=O)C(CC)Sc1nc2ccccc2c(=O)n1CCc1ccc(OC)c(OC)c1` (centres undefined) was inactive: -10.8%; that for `CCc1ccc(NC(=O)Cn2c(-c3cncs3)nc3ccccc32)cc1` was inactive: -3.38%.
Consider `CCn1c2ccccc2c2cc(CN3CCN(Cc4ccccc4C)CC3)ccc21`, for which the “activity change, negative = inhibition” value was inactive: -17.9%.
The figure for `COc1ccccc1C(=O)Nc1ccc(OCc2cc(=O)n3cc(C)sc3n2)cc1` is inactive: -13.4%; for `COc1ccc(C)cc1NC(=O)c1ccc2c(c1)nnn2C1CCCC1` it is inactive: -35.5%.
The value for `Cc1ccc2[nH]c(=O)c3cc(C(=O)NCCc4ccc(Cl)cc4)sc3c2c1` was inactive: -3.72%; that for `c1ccc(OCCn2c(COc3ccccc3)nc3ccccc32)cc1` was inactive: -8.56%; that for `O=C1c2oc3ccccc3c(=O)c2C(c2cccc(Cl)c2)N1c1ccccn1` (centres undefined) was inactive: -8.17%.
Take `O=C(Cn1c(=O)c2cccn2c2cccnc21)NCc1ccccc1F`: the “activity change, negative = inhibition” value was inactive: -1.69%.
For the compound `CC1=C(C(=O)Nc2ccc(C)cc2C)C(c2ccccc2F)n2nc(SCC(=O)c3ccc(C)cc3)nc2N1` (centres undefined), the “activity change, negative = inhibition” value was inactive: -13.5%.
Consider `Cc1cc2nc(-c3ccc(OCc4ccccc4)cc3)cc(C(F)(F)F)n2n1`, for which the “activity change, negative = inhibition” value was inactive: -4.5%.
The value for `Cc1cc(-n2c(C)nc3ccccc3c2=O)ccc1NC(=O)c1ccc([N+](=O)[O-])cc1` was inactive: -17.7%; that for `O=C(Nc1ccc(S(=O)(=O)N2CCCCCC2)cc1)c1cc(=O)c2ccccc2o1` was inactive: -27.4%.
Regarding `CC(=O)c1ccc(N2CCN(C(=O)CCS(=O)(=O)c3ccc4c(c3)oc(=O)n4C)CC2)cc1`, the activity change, negative = inhibition is inactive: 9.42% [at 11.5 µM].
The figure for `CCOc1ccc(NS(=O)(=O)c2ccc3[nH]cc(C(=O)NCC4CCCO4)c(=O)c3c2)cc1` (centres undefined) is inactive: 17%; for `Nc1c(-c2nc(-c3ccc(F)cc3)cs2)c2ccccn2c1C(=O)c1ccc2c(c1)OCO2` it is inactive: -9.7%.
The figure for `CCOc1ccc(N2CC(C(=O)NCc3nnnn3-c3ccc(C)c(C)c3)CC2=O)cc1` (centres undefined) is inactive: 0.0349%.
The value for `COc1ccc(NCc2cc3ccc(OC)cc3n(CC(=O)Nc3cc(Cl)ccc3C)c2=O)cc1` was inactive: -4.35%; that for `CCSc1ncc(Cl)c(C(=O)Nc2sc3c(c2C(=O)NC)CCCC3)n1` was inactive: -8.26%.
Take `CC(Oc1ccccc1F)C(=O)Nc1ccc(-c2nc3ccccc3s2)cc1` (centres undefined): the “activity change, negative = inhibition” value was inactive: 24.2%.
The value for `CCc1cccc(NC(=O)CN(C)S(=O)(=O)c2cccc3cccnc23)c1` was inactive: -21.5%; that for `Nc1ccc(C(=O)O)c(O)c1` was inactive: 3.5%.
Take `CC1CCc2c(sc(NC(=O)c3cc4nc(-c5ccc(Cl)cc5)cc(C(F)(F)F)n4n3)c2C#N)C1` (centres undefined): the “activity change, negative = inhibition” value is inactive: 4.13%.
The value for `COc1ccc(S(=O)(=O)c2cnc(SCC(=O)Nc3cc(F)ccc3C)[nH]c2=O)cc1Cl` was inactive: -8.86%.
The figure for `CCC1CCCCN1C(=O)c1sc(-n2nc(C)c(Cc3ccccc3)c2C)nc1C` (centres undefined) is inactive: 20.9%; for `COc1cccc(OC(=O)CSc2nnc(-c3ccc4c(c3)OCO4)o2)c1` it is inactive: -13.4%; for `CCOC(=O)c1c(S(=O)(=O)NCC(=O)NCc2ccccc2)c(C)n(C)c1C` it is inactive: 1.77%.
On to `Cc1cccc(-c2nc3c4ccccc4nc(NCc4ccc(F)cc4)n3n2)c1`, for which the “activity change, negative = inhibition” value was inactive: 37.1%.
The value for `CCOC(=O)c1ccc(OC(=O)c2cn(-c3cccc(OC)c3)c(=O)c3ccccc23)cc1` was inactive: -11.1%.
The value for `CCc1ccc2c(c1)NC(c1ccc(OC)cc1)=NC(c1ccncc1)=N2` was inactive: -18.8%; that for `CCOc1ccccc1NC(=O)C(C)N(c1ccccc1)S(C)(=O)=O` (centres undefined) was inactive: -6.41%; that for `COc1cc(/C=C/c2nc(C#N)c(N3CCC(C)CC3)o2)cc(OC)c1OC` was inactive: -26.3%.
The figure for `COc1ccccc1OCC(=O)Nc1c(C(=O)c2ccc(F)cc2)oc2ccccc12` is inactive: -9.36%; for `O=C(c1ccccc1)c1ccccc1` it is inactive: 14.9%.
As for `Cc1ccc2c(c1)N(CCCC(=O)NCc1cccc(F)c1)C(=O)CO2`, the “activity change, negative = inhibition” value was inactive: -2.45%.
The value for `Cc1ncc(CO)c(CN)c1O` was inactive: -2.86%; that for `COc1ccc(NC(=O)C(NC(=O)/C=C\c2ccc3c(c2)OCO3)c2ccccc2)cc1` (centres undefined) was inactive: -11.2%.
